Test [1] addresses T1, Bem1-mCherry-Cub-RGFP (S. cerevisiae) (UniProt P29366).
T1 sequence: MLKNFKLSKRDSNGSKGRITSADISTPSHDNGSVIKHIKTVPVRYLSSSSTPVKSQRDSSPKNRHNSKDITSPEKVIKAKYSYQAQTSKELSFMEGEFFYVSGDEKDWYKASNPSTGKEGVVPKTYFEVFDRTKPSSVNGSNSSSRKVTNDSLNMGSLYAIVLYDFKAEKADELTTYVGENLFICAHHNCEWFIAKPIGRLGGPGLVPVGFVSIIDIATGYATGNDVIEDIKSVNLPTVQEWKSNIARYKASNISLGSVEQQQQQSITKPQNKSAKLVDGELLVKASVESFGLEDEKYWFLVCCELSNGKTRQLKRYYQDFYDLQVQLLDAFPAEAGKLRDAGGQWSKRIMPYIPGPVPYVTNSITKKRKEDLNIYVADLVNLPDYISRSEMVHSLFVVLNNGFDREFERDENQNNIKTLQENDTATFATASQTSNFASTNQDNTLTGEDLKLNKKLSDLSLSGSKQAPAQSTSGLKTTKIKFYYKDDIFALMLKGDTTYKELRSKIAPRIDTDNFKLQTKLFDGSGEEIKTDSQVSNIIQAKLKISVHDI
The experiment in a line: split reporter; SPLIFF (split-ubiquitin with mCherry-Cub-RGFP, CCG): a-cells with the CCG fusion mated with α-cells with Nub-HA fusions; conversion of CCG to CC measured by time-lapse microscopy at the site of cell fusion (PCDI); a significant positive slope = interaction.

Chains of the proteins cited; added tags and fusions are not shown.
UniProt P19073: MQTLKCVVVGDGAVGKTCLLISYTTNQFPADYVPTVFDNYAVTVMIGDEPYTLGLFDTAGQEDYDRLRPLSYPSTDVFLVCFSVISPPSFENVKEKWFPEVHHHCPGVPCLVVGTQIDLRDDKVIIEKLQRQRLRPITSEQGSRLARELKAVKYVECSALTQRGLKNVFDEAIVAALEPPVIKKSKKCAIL

Test [2] concerns the target T1, Bem1-mCherry-Cub-RGFP (S. cerevisiae). The experiment in a line: split reporter; SPLIFF as a9, measured at the cell front during bud site assembly and bud growth (PCDII).
For test [3] the target is unchanged. The experiment in a line: split reporter; SPLIFF as a9, measured at the bud neck from completion of acto-myosin ring contraction until abscission (PCDIII).
The target in test [4] is T2, Bem1WK-Cub-RUra3 (S. cerevisiae) (UniProt P29366).
T2 sequence: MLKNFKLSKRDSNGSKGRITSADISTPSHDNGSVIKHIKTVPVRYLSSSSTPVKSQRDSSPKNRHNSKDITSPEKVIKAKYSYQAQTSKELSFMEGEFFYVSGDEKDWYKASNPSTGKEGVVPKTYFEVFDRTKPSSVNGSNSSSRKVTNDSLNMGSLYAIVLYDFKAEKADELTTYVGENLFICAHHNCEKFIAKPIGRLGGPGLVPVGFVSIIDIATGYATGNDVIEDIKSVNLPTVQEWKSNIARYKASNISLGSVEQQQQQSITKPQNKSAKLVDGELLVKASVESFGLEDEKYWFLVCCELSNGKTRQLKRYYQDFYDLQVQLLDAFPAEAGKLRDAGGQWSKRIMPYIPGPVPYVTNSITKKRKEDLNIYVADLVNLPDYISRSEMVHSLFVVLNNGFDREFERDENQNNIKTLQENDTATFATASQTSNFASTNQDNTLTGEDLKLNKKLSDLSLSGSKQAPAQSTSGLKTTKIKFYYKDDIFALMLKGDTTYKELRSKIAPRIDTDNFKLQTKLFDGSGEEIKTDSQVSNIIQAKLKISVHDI
Briefly: split reporter; split-ubiquitin (Split-Ub): a-cells with a Cub-RUra3 (CRU) fusion mated with α-cells with Nub fusions (P_CUP1), diploids as quadruplets on SD medium with 1 mg/ml 5-FOA and copper; growth = interaction; detects direct and indirect interactions.

The target of test [5] is T3, Bem1-Cub-RUra3 (S. cerevisiae) (UniProt P29366).
T3 sequence: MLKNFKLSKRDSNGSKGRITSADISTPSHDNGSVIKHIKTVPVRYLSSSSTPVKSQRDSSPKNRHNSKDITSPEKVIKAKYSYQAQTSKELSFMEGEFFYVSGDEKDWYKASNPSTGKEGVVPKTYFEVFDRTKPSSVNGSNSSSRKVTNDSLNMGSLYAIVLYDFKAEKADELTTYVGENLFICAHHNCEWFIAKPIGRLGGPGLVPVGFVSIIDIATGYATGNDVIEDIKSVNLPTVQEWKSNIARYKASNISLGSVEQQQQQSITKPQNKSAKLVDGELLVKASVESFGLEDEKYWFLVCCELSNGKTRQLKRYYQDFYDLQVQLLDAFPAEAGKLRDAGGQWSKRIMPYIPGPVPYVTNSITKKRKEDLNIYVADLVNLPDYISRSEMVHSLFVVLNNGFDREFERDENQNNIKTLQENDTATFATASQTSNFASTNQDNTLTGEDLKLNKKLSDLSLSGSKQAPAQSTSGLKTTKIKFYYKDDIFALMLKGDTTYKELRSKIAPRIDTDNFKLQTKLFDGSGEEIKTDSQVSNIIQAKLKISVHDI
The description is as above.

Test [6] addresses T4, Bem1-Cub-RUra3 (S. cerevisiae), P29366.
T4 chain: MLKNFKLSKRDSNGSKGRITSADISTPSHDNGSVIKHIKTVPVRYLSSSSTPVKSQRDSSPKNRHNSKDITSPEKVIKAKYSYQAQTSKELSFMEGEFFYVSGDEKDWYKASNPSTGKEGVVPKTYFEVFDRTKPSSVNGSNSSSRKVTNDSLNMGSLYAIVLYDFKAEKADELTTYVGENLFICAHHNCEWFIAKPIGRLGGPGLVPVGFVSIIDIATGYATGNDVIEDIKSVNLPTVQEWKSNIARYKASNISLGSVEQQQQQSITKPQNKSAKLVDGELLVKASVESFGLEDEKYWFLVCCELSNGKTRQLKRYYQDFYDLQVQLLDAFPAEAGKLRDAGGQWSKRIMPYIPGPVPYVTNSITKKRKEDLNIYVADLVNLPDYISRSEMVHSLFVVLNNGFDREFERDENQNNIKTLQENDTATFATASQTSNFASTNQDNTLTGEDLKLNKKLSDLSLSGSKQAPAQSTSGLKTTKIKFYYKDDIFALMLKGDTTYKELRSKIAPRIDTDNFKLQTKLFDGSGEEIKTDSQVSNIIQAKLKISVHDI
The description is as above. To be noted: remark: other sources report otherwise.

The target of test [7] is T3, Bem1-Cub-RUra3 (S. cerevisiae). Briefly: split reporter; Split-Ub as a2, in strains with a deletion of BOI1 or BOI2, or boi2∆ boi1_(PxxP∆).
For test [8], the target named is T1, Bem1-mCherry-Cub-RGFP (S. cerevisiae). Briefly: split reporter; SPLIFF as a9, measured at the cell front during bud site assembly and bud growth (PCDII). The source holds these as a separate data set.
Test [9] addresses T3, Bem1-Cub-RUra3 (S. cerevisiae). The experiment in a line: split reporter; Split-Ub as a1, but Nub fusions expressed from their native promoters; scored after 4 d on 5-FOA medium.

Our source for the binding values is paper PMC7409549, “A time-resolved interaction analysis of Bem1 reconstructs the flow of Cdc42 during polar growth” (Life Science Alliance, 2020).

These are yes or no findings as the source states them, for the method shown. In cells and extracts the contact can be indirect. Some results given as binding are weak or reduced against the parent protein; the word gives no strength. For some assays here: Tags and fused reporters may be left off the sequences shown.

As to Nub-Cdc42 (from UniProt P19073 1-191), the binding result in test [1], in test [2], in test [3], in test [4] and in test [5] was “binds” in each case.

B1: Nub-Msb1, P21339 1-1137 (protein)
chain: MNDMAKPLPTPPTAEIRKSRSNSPKKAQKTNLSPNKNQNNEKNVPRSNGRTKNEHNSMDDEEFEFFHQFSREKVKGVIHVITAELKEKGPDVEFLMIPFRPEQTNDKLLTLLNQLFPLGNGQPVNEKKQLRIVSKADVWTLFQCLKYIWCRLPNSEIIGWKSYLEFKFREEDKKFPRKSFLEIMPQCLASPNHASIVYDFFDLIISISSNSRVNKMSARKISKMCAIWAFSKQIPNSDIQDYDFESAAMKSFAPNNSIQDGLDQWIPASDAMFHLLLAFLRSFVPQDLESAKLPRTLKSLLFNNQYPPRKSTAYTSETILTIPLVTLKTDVFSRKPWQLLERCNDLLDFSDHDAFEAREDYALLKSLFRKKNTVEGISRKMSQESRRLMKAMSTKHSTFQPGWAPRECIENISHLKECIEVKRLDIDDYFIWTWLSSLSFEQTSEKKKIFGRSIILEFEFDGFKKWVVFQECDITLDYNKKGQLKKKTSAQSPTTEKELPPDDFELEDPPLSKSPTLSQTYKKFQAEVPQQSTVRRDSAPDNQGIYHTVISKNALTKNKHNVNLHSFEHKISKWNPLNNLRKKSGSNSSSSSFEEKSKDAPIREEYHTNKNHKSKKEERVLSQFSTLNPDEYQLPVIETGSSNFKIEIPELMYEHDDDDSDKLKNSQKRATDSAIEELNGMVEEMMINEPDDVKISITEAETFESLTKFDQYKPSNITDDDLQSSHSSAVHSLKLSTNTNDSCADSSKYTADRKLAEPRKISEESKVNDDSSSYYSPNINNLPASRMPSQPTYSNSDSKKAFTNESRLNVLQGAVSPSQQVTPKPYKNAPGDCVSPVQQKYYQNDRRNEMSPASAPVPPSAYSPARSPQFSTNSAGFKQNTINVPVGYNDPAHVLANQPHMTYRDQHNYPSHQQKQRPFQNNIVPPELKSRNQRADASPIPQHMVPVKQGVPNLPSNVPLYQQMERMNPNHQHPVNTYKVTQPPYHNNTTNAYGNSRAGNAHMLDGKWSNNPPQMVPKGVRPNQYPQQHVNRYSPQAQPVVPAEYYNGPPPMRAPPMMSHMVPAQEPIRYTAGANRRSFPQGMQQNAYSVPAQPMGAVNSEFYLPEAPQGNKLHGNINKRQERKKLYDNIRSGNFGI
For B1, the binding result in test [6] is given as “binds”.

B2: Bem1-Cub-RUra3 (protein, UniProt P29366 1-551)
chain: MLKNFKLSKRDSNGSKGRITSADISTPSHDNGSVIKHIKTVPVRYLSSSSTPVKSQRDSSPKNRHNSKDITSPEKVIKAKYSYQAQTSKELSFMEGEFFYVSGDEKDWYKASNPSTGKEGVVPKTYFEVFDRTKPSSVNGSNSSSRKVTNDSLNMGSLYAIVLYDFKAEKADELTTYVGENLFICAHHNCEWFIAKPIGRLGGPGLVPVGFVSIIDIATGYATGNDVIEDIKSVNLPTVQEWKSNIARYKASNISLGSVEQQQQQSITKPQNKSAKLVDGELLVKASVESFGLEDEKYWFLVCCELSNGKTRQLKRYYQDFYDLQVQLLDAFPAEAGKLRDAGGQWSKRIMPYIPGPVPYVTNSITKKRKEDLNIYVADLVNLPDYISRSEMVHSLFVVLNNGFDREFERDENQNNIKTLQENDTATFATASQTSNFASTNQDNTLTGEDLKLNKKLSDLSLSGSKQAPAQSTSGLKTTKIKFYYKDDIFALMLKGDTTYKELRSKIAPRIDTDNFKLQTKLFDGSGEEIKTDSQVSNIIQAKLKISVHDI
On to B2, for which the binding result in test [7] is “binds weakly”.

B3: Nub-Rsr1 (protein, UniProt P13856 1-272)
chain: MRDYKLVVLGAGGVGKSCLTVQFVQGVYLDTYDPTIEDSYRKTIEIDNKVFDLEILDTAGIAQFTAMRELYIKSGMGFLLVYSVTDRQSLEELMELREQVLRIKDSDRVPMVLIGNKADLINERVISVEEGIEVSSKWGRVPFYETSALLRSNVDEVFVDLVRQIIRNEMESVAVKDARNQSQQFSKIESPSTRLPSSAKQDTKQSNNKQSSKGLYNKSSQGQAKVKQSTPVNEKHKPSHAVPKSGSSNRTGISATSQQKKKKKNASTCTIL
As for B3, the binding entry in test [1], in test [8], in [9] and in test [3] was “binds” each time.
